The experiment has as its target Noro protease (Norovirus, UniProt Q83883). Briefly: Norovirus protease inhibition assay (Noro-Norwalk FRET protease assay). The following applies: IC50 (μM), peptide substrate 10 μM, 90 minutes at 37° C., compounds 200 μM to 10.2 nM.
As usually defined, the IC50 is the concentration that gives 50% inhibition. A higher IC50 goes with weaker potency. The compound `CCOP(=O)(OCC)C(O)C(CC1CC2(CCN(C(C)=O)CC2)NC1=O)NC(=O)C(CC(C)C)NC(=O)OCc1cccc(Cl)c1` (stereo in doubt) [Compound C69, 3-Chlorobenzyl ((2R)-1-((3-(8-acetyl-2-oxo-1,8-diazaspiro[4.5]decan-3-yl)-1-(diethoxyphosphoryl)-1-hydroxypropan-2-yl)amino)-4-methyl-1-oxopentan-2-yl)carbamate] showed an IC50 of more than 200 µM.
On to `CCOP(=O)(OCC)C(O)C(CC1CC2(CCCCC2)NC1=O)NC(=O)C(CC(C)C)NC(=O)OCc1cccc(Cl)c1` (stereo in doubt) [Compound C85, 3-Chlorobenzyl ((2R)-1-((1-(diethoxyphosphoryl)-1-hydroxy-3-(2-oxo-1-azaspiro[4.5]decan-3-yl)propan-2-yl)amino)-4-methyl-1-oxopentan-2-yl)carbamate], for which inhibition was half-maximal at 143 µM (IC50).
The value for `CC(C)C[C@H](NC(=O)OC1CCCC1Cc1ccccc1)C(=O)NC(C[C@@H]1CCNC1=O)C(=O)C(=O)NC1CC1` (stereo in doubt) [Compound C89, 2-Benzylcyclopentyl ((S)-1-(((R)-4-(cyclopropylamino)-3,4-dioxo-1-((S)-2-oxopyrrolidin-3-yl)butan-2-yl)amino)-4-methyl-1-oxopentan-2-yl)carbamate] was 99.2 µM.
The value for `CCCC1CCC(OC(=O)NC(CC(C)C)C(=O)NC(CC2CC3(CCN(C(C)=O)CC3)NC2=O)C(O)P(=O)(OCC)OCC)CC1` (stereo in doubt) [Compound C91, 4-Propylcyclohexyl ((2R)-1-((3-(8-acetyl-2-oxo-1,8-diazaspiro[4.5]decan-3-yl)-1-(diethoxyphosphoryl)-1-hydroxypropan-2-yl)amino)-4-methyl-1-oxopentan-2-yl)carbamate] was more than 200 µM; that for `CC(=O)N1CCC2(CC1)CC(CC(NC(=O)C(Cc1ccccc1)NC(=O)c1cnc3ccccc3n1)C(=O)C(N)=O)C(=O)N2` (stereo in doubt) [Compound C130, N-((2S)-1-((1-(8-acetyl-2-oxo-1,8-diazaspiro[4.5]decan-3-yl)-4-amino-3,4-dioxobutan-2-yl)amino)-1-oxo-3-phenylpropan-2-yl)quinoxaline-2-carboxamide] was more than 200 µM; that for `CC(=O)N1CCC2(CC1)CC(CC(C=O)NC(=O)[C@H](CC1CCCCC1)NC(=O)OCc1cccc(Cl)c1)C(=O)N2` (stereo partly drawn) [Compound C32, 3-Chlorobenzyl ((2S)-1-((1-(8-acetyl-2-oxo-1,8-diazaspiro[4.5]decan-3-yl)-3-oxopropan-2-yl)amino)-3-cyclohexyl-1-oxopropan-2-yl)carbamate] was 4.2 µM.
`CC(C)C[C@H](NC(=O)N(Cc1ccccc1)C1CCN(C(=O)OC(C)(C)C)CC1)C(=O)N[C@H](C=O)C[C@@H]1CCNC1=O` [Compound C37, Tert-butyl 4-(1-benzyl-3-((S)-4-methyl-1-oxo-1-(((S)-1-oxo-3-((S)-2-oxopyrrolidin-3-yl)propan-2-yl)amino)pentan-2-yl)ureido)piperidine-1-carboxylate] had an IC50 of 26 µM.
The value for `CC(C)C[C@H](NC(=O)OC(Cc1ccccc1)c1ccccc1)C(=O)N[C@H](C=O)C[C@@H]1CCNC1=O` (stereo partly drawn) [Compound C38, 1,2-Diphenylethyl ((S)-4-methyl-1-oxo-1-(((S)-1-oxo-3-((S)-2-oxopyrrolidin-3-yl)propan-2-yl)amino)pentan-2-yl)carbamate] was 3.7 µM.
As for `CC(C)C[C@H](NC(=O)OC1CCCC1Cc1ccccc1)C(=O)N[C@H](C=O)C[C@@H]1CCNC1=O` (stereo partly drawn) [Compound C43, 2-benzylcyclopentyl ((S)-4-methyl-1-oxo-1-(((S)-1-oxo-3-((S)-2-oxopyrrolidin-3-yl)propan-2-yl)amino)pentan-2-yl) carbamate], the figure is 5.9 µM; as for `O=CC(CC1CC(Cc2ccccc2)NC1=O)NC(=O)[C@H](CC1CCCCC1)NC(=O)OCc1cccc(Cl)c1` (stereo partly drawn) [Compound C52, 3-Chlorobenzyl ((2S)-1-((1-(5-benzyl-2-oxopyrrolidin-3-yl)-3-oxopropan-2-yl)amino)-3-cyclohexyl-1-oxopropan-2-yl)carbamate], 9.2 µM.
The value for `CC(=O)N1CCC2(CC1)CC(CC(C=O)NC(=O)[C@H](CC(C)C)NC(=O)OCc1cccc(Cl)c1)C(=O)N2` (stereo partly drawn) [Compound C54, 3-Chlorobenzyl ((2S)-1-((1-(8-acetyl-2-oxo-1,8-diazaspiro[4.5]decan-3-yl)-3-oxopropan-2-yl)amino)-4-methyl-1-oxopentan-2-yl)carbamate] was 7 µM.
Take `CC(C)C[C@H](NC(=O)OCc1cccc(Cl)c1)C(=O)NC(C=O)CC1CC2(CCCCC2)NC1=O` (stereo partly drawn) [Compound C66, 3-Chlorobenzyl ((2S)-4-methyl-1-oxo-1-((1-oxo-3-(2-oxo-1-azaspiro[4.5]decan-3-yl)propan-2-yl)amino)pentan-2-yl)carbamate]: the IC50 was found to be 10.9 µM.
The value for `CC(=O)N1CCC2(CC1)CC(CC(C=O)NC(=O)[C@H](Cc1cccc(F)c1)NC(=O)OCc1cccc(Cl)c1)C(=O)N2` (stereo partly drawn) [Compound C67, 3-Chlorobenzyl ((2S)-1-((1-(8-acetyl-2-oxo-1,8-diazaspiro[4.5]decan-3-yl)-3-oxopropan-2-yl)amino)-3-(3-fluorophenyl)-1-oxopropan-2-yl)carbamate] was 9.1 µM.
As for `CC(C)C[C@H](NC(=O)OC(Cc1ccccc1)c1ccccc1)C(=O)N[C@@H](C[C@@H]1CCNC1=O)C(=O)C(=O)NCc1ccccn1` (stereo partly drawn) [Compound C68, 1,2-Diphenylethyl ((S)-1-(((S)-3,4-dioxo-1-((S)-2-oxopyrrolidin-3-yl)-4-((pyridin-2-ylmethyl)amino)butan-2-yl)amino)-4-methyl-1-oxopentan-2-yl)carbamate], the figure is more than 200 µM; as for `CC(=O)N1CCC2(CC1)CC(CC(C=O)NC(=O)[C@H](CC(C)C)NC(=O)OCC(C)(C)c1cccc(Cl)c1)C(=O)N2` (stereo partly drawn) [Compound C70, 2-(3-Chlorophenyl)-2-methylpropyl ((2S)-1-((1-(8-acetyl-2-oxo-1,8-diazaspiro[4.5]decan-3-yl)-3-oxopropan-2-yl)amino)-4-methyl-1-oxopentan-2-yl)carbamate], 5.2 µM; as for `CC(C)C[C@H](NC(=O)OC1(Cc2cccnc2)CC1)C(=O)N[C@H](C=O)C[C@@H]1CCNC1=O` [Compound C71, 1-(Pyridin-3-ylmethyl)cyclopropyl ((S)-4-methyl-1-oxo-1-(((S)-1-oxo-3-((S)-2-oxopyrrolidin-3-yl)propan-2-yl)amino)pentan-2-yl)carbamate], 87 µM.
In turn, `CC(C)C[C@H](NC(=O)OCC(C)(C)c1cccc(Cl)c1)C(=O)N[C@@H](C[C@@H]1CCNC1=O)C(O)S(=O)(=O)O` (stereo partly drawn) [Compound C72, Sodium (2S)-2-((S)-2-(((2-(3-chlorophenyl)-2-methylpropoxy)carbonyl)amino)-4-methylpentanamido)-1-hydroxy-3-((S)-2-oxopyrrolidin-3-yl)propane-1-sulfonate] showed an IC50 of 2.3 µM.
The compound `CC(C)C[C@H](NC(=O)OC1(Cc2ccccc2)CCC1)C(=O)N[C@@H](C[C@@H]1CCNC1=O)C(=O)C(N)=O` [Compound C73, 1-Benzylcyclobutyl ((S)-1-(((S)-4-amino-3,4-dioxo-1-((S)-2-oxopyrrolidin-3-yl)butan-2-yl)amino)-4-methyl-1-oxopentan-2-yl)carbamate] showed an IC50 of 39.1 µM.
On to `CC(=O)N1CCC2(CC1)CC(CC(C=O)NC(=O)[C@H](CC(C)C)NC(=O)c1cc3ccccc3[nH]1)C(=O)N2` (stereo partly drawn) [Compound C74, N-((2S)-1-((1-(8-acetyl-2-oxo-1,8-diazaspiro[4.5]decan-3-yl)-3-oxopropan-2-yl)amino)-4-methyl-1-oxopentan-2-yl)-1H-indole-2-carboxamide], for which half-maximal inhibition (IC50) was put at 16.4 µM. Against the preceding compound, the IC50 is about 2.4-fold lower.
The value for `CC(=O)N1CCC2(CC1)CC(CC(C=O)NC(=O)[C@H](CC1CCCCC1)NC(=O)c1cc3ccccc3[nH]1)C(=O)N2` (stereo partly drawn) [Compound C75, N-((2S)-1-((1-(8-acetyl-2-oxo-1,8-diazaspiro[4.5]decan-3-yl)-3-oxopropan-2-yl)amino)-3-cyclohexyl-1-oxopropan-2-yl)-1H-indole-2-carboxamide] was 8.1 µM; that for `CC(C)C[C@H](NC(=O)OC1(Cc2cccc(OCc3ccccc3)c2)CC1)C(=O)N[C@@H](CC1CCNC1=O)C(O)S(=O)(=O)O` (stereo partly drawn) [Compound C76, Sodium (2S)-2-((S)-2-(((1-(3-(benzyloxy)benzyl)cyclopropoxy)carbonyl)amino)-4-methylpentanamido)-1-hydroxy-3-((S)-2-oxopyrrolidin-3-yl)propane-1-sulfonate] was 10.5 µM.
As for `CCCC1CCC(OC(=O)N[C@@H](CC(C)C)C(=O)NC(C=O)CC2CC3(CCN(C(C)=O)CC3)NC2=O)CC1` (stereo partly drawn) [Compound C77, 4-Propylcyclohexyl ((2S)-1-((1-(8-acetyl-2-oxo-1,8-diazaspiro[4.5]decan-3-yl)-3-oxopropan-2-yl)amino)-4-methyl-1-oxopentan-2-yl)carbamate], the figure is 32.6 µM; as for `CC(C)C[C@H](NC(=O)OC(C)(C)Cc1ccccc1)C(=O)N[C@@H](C[C@@H]1CCNC1=O)C(=O)C(N)=O` [Compound C79], more than 200 µM; as for `CCOP(=O)(OCC)C(O)C(CC1CC2(CCN(C(C)=O)CC2)NC1=O)NC(=O)[C@H](CC1CCCCC1)NC(=O)c1cc2ccccc2[nH]1` (stereo partly drawn) [Compound C81, Diethyl (3-(8-acetyl-2-oxo-1,8-diazaspiro[4.5]decan-3-yl)-2-((S)-3-cyclohexyl-2-(1H-indole-2-carboxamido)propanamido)-1-hydroxypropyl)phosphonate], 23.9 µM.
In turn, `CCOP(=O)(OCC)C(O)C(CC1CC2(CCN(C(C)=O)CC2)NC1=O)NC(=O)[C@H](Cc1cccc(F)c1)NC(=O)OCc1cccc(Cl)c1` (stereo partly drawn) [Compound C82, 3-Chlorobenzyl ((2S)-1-((3-(8-acetyl-2-oxo-1,8-diazaspiro[4.5]decan-3-yl)-1-(diethoxyphosphoryl)-1-hydroxypropan-2-yl)amino)-3-(3-fluorophenyl)-1-oxopropan-2-yl)carbamate] gave an IC50 of 127 µM.
The value for `CC(C)C[C@H](NC(=O)OCC(C)(C)c1cccc(Cl)c1)C(=O)NC(C)(C=O)CC1CCNC1=O` (stereo partly drawn) [Compound C83, 2-(3-Chlorophenyl)-2-methylpropyl ((2S)-4-methyl-1-((2-methyl-1-oxo-3-(2-oxopyrrolidin-3-yl)propan-2-yl)amino)-1-oxopentan-2-yl) carbamate] was more than 200 µM.
